Source: the antibiotic and cytotoxicity screens of Wong et al. (2023)
The list shows a part of the results.

What was measured:
HSkMC = human skeletal muscle cells; test: cytotoxicity call (relative viability < 0.9); settings: 10 µM
HepG2 = test: cytotoxicity call (relative viability < 0.9); settings: 10 µM
S. aureus RN4220 = test: growth inhibition call (relative growth <= 0.2); settings: 50 µM

C=CCNC(=O)[C@@H]1[C@H]2C(=O)O[C@H](c3ccccc3)[C@H](c3ccccc3)N2[C@H](c2ccc(OCCO)cc2)[C@@]12C(=O)Nc1ccc(C#CC3(O)CCCCCC3)cc12
inactive: cytotoxicity call (HSkMC) | cytotoxicity call (HepG2) | growth inhibition call (S. aureus RN4220)

C[C@@H]1CN([C@@H](C)CO)C(=O)c2cc(NS(=O)(=O)c3ccccc3)ccc2O[C@@H](C)CCCCO[C@@H]1CN(C)Cc1ccccc1
inactive: cytotoxicity call (HSkMC) | cytotoxicity call (HepG2) | growth inhibition call (S. aureus RN4220)

COc1ccc(NC(=O)N(C)C[C@H]2Oc3c(NC(=O)CCCCCC(=O)Nc4ccccc4N)cccc3C(=O)N([C@@H](C)CO)C[C@@H]2C)cc1
inactive: cytotoxicity call (HSkMC) | cytotoxicity call (HepG2) | growth inhibition call (S. aureus RN4220)

C[C@@H]1CN([C@@H](C)CO)C(=O)c2cc(NC(=O)Cc3cn(C)c4ccccc34)ccc2O[C@H]1CN(C)S(C)(=O)=O
inactive: cytotoxicity call (HSkMC) | cytotoxicity call (HepG2) | growth inhibition call (S. aureus RN4220)

CC(C)(C)OC(=O)N1CC2(CNC(=O)O2)C1
inactive: cytotoxicity call (HSkMC) | cytotoxicity call (HepG2) | growth inhibition call (S. aureus RN4220)

COC(=O)[C@H]1CCC(=O)N1
inactive: cytotoxicity call (HSkMC) | cytotoxicity call (HepG2) | growth inhibition call (S. aureus RN4220)

C[C@H](CO)N1C[C@H](C)[C@H](CN(C)S(=O)(=O)c2cn(C)cn2)Oc2ccc(NC(=O)Nc3ccc4c(c3)OCO4)cc2CC1=O
inactive: cytotoxicity call (HSkMC) | cytotoxicity call (HepG2) | growth inhibition call (S. aureus RN4220)

O=C(O[C@@H]1O[C@H]2COC(=O)c3cc(O)c(O)c(O)c3-c3c(cc(O)c(O)c3O)C(=O)O[C@@H]([C@H]1O)[C@@H]2O)c1cc(O)c(O)c(O)c1
inactive: cytotoxicity call (HSkMC) | cytotoxicity call (HepG2) | growth inhibition call (S. aureus RN4220)

C[C@@H]1CN([C@H](C)CO)C(=O)c2cccc(NS(=O)(=O)c3cn(C)cn3)c2O[C@H]1CN(C)CC1CCCCC1
inactive: cytotoxicity call (HSkMC) | cytotoxicity call (HepG2) | growth inhibition call (S. aureus RN4220)

Cc1ccc(S(=O)(=O)Nc2ccc3c(c2)C(=O)N([C@@H](C)CO)C[C@@H](C)[C@@H](CN(C)C(=O)Nc2c(C)noc2C)OCCCC[C@@H](C)O3)cc1
inactive: cytotoxicity call (HSkMC) | cytotoxicity call (HepG2) | growth inhibition call (S. aureus RN4220)

CCOC(=O)[C@H]1CC(CC2OCCO2)=NO1
inactive: cytotoxicity call (HSkMC) | cytotoxicity call (HepG2) | growth inhibition call (S. aureus RN4220)

CCC(=O)Nc1ccc2c(c1)OC[C@@H](C)N(C(=O)CN1CCOCC1)C[C@@H](C)[C@@H](OC)CN(C)C2=O
inactive: cytotoxicity call (HSkMC) | cytotoxicity call (HepG2) | growth inhibition call (S. aureus RN4220)

C[C@@H]1CN([C@@H](C)CO)S(=O)(=O)c2ccc(C#CCN(C)C)cc2O[C@@H]1CN(C)C(=O)c1ccccc1F
inactive: cytotoxicity call (HSkMC) | cytotoxicity call (HepG2) | growth inhibition call (S. aureus RN4220)

C[C@H](CO)N1C[C@H](C)[C@H](CN(C)Cc2ccc(C(F)(F)F)cc2)Oc2c(NC(=O)NC3CCCCC3)cccc2C1=O
inactive: cytotoxicity call (HSkMC) | cytotoxicity call (HepG2) | growth inhibition call (S. aureus RN4220)

C[C@@H]1CN([C@H](C)CO)C(=O)c2cc(NC(=O)CCCN(C)C)ccc2O[C@H]1CN(C)C(=O)Nc1ccc2c(c1)OCO2
inactive: cytotoxicity call (HSkMC) | cytotoxicity call (HepG2) | growth inhibition call (S. aureus RN4220)

C[C@@H]1CN([C@H](C)CO)C(=O)c2cc(NC(=O)Nc3cccc4ccccc34)ccc2O[C@H]1CN(C)S(=O)(=O)c1ccc(F)cc1
inactive: cytotoxicity call (HSkMC) | cytotoxicity call (HepG2) | growth inhibition call (S. aureus RN4220)

CNC(=O)c1cc(N)ccc1F
inactive: cytotoxicity call (HSkMC) | cytotoxicity call (HepG2) | growth inhibition call (S. aureus RN4220)

O=C1c2c(O)cc(O[C@@H]3O[C@H](CO)[C@@H](O)[C@H](O)[C@@H]3O)cc2O[C@@H](c2ccc(O)cc2)[C@@H]1O
inactive: cytotoxicity call (HSkMC) | cytotoxicity call (HepG2) | growth inhibition call (S. aureus RN4220)

COc1ccc(NC(=O)N(C)C[C@@H]2OCCCC[C@@H](C)Oc3ccc(NS(=O)(=O)c4cccs4)cc3C(=O)N([C@H](C)CO)C[C@H]2C)cc1
inactive: cytotoxicity call (HSkMC) | cytotoxicity call (HepG2) | growth inhibition call (S. aureus RN4220)

C[C@@H]1CN([C@@H](C)CO)C(=O)c2cc(C#Cc3ccccc3F)cnc2O[C@H]1CN(C)S(=O)(=O)c1ccccc1
inactive: cytotoxicity call (HSkMC) | cytotoxicity call (HepG2) | growth inhibition call (S. aureus RN4220)

C[C@H](CO)N1C[C@H](C)[C@@H](CN(C)C(=O)Cc2ccccn2)Oc2ncc(C#CC3CCCC3)cc2C1=O
inactive: cytotoxicity call (HSkMC) | cytotoxicity call (HepG2) | growth inhibition call (S. aureus RN4220)

CO[C@@H]1CN(C)C(=O)c2cc(NC(=O)NC(C)C)ccc2OC[C@H](C)N(Cc2ccc(-c3ccccn3)cc2)C[C@H]1C
inactive: cytotoxicity call (HSkMC) | cytotoxicity call (HepG2) | growth inhibition call (S. aureus RN4220)

Cc1cccc[n+]1C
inactive: cytotoxicity call (HSkMC) | cytotoxicity call (HepG2) | growth inhibition call (S. aureus RN4220)

CC(C)C[C@@H]1NC(=O)[C@H]2C[C@@H](C(=O)NCCCC[N+](C)(C)C)[C@@H](c3cccc(OCCO)c3)N2C1=O
inactive: cytotoxicity call (HSkMC) | cytotoxicity call (HepG2) | growth inhibition call (S. aureus RN4220)

Cc1noc(C)c1NC(=O)Nc1ccc2c(c1)CC(=O)N([C@H](C)CO)C[C@H](C)[C@H](CN(C)S(=O)(=O)c1ccccc1)O2
inactive: cytotoxicity call (HSkMC) | cytotoxicity call (HepG2) | growth inhibition call (S. aureus RN4220)

CCCNC(=O)Nc1ccc2c(c1)C(=O)N(C)C[C@H](OC)[C@@H](C)CN(C(=O)C1CCOCC1)[C@@H](C)CO2
inactive: cytotoxicity call (HSkMC) | cytotoxicity call (HepG2) | growth inhibition call (S. aureus RN4220)

CC(C)(C)OC(=O)C[C@H]1CC=CC[C@@H](CC(=O)N[C@H](CO)Cc2ccccc2)C(=O)N2CCC[C@@H]2COC1=O
inactive: cytotoxicity call (HSkMC) | cytotoxicity call (HepG2) | growth inhibition call (S. aureus RN4220)

COC1CC2CCC(C)C(O)(O2)C(=O)C(=O)N2CCCCC2C(=O)OC(C(C)CC2CCC(O)C(OC)C2)CC(=O)C(C)C=C(C)C(O)C(OC)C(=O)C(C)CC(C)C=CC=CC=C1C (centres undefined)
inactive: cytotoxicity call (HSkMC) | cytotoxicity call (HepG2) | growth inhibition call (S. aureus RN4220)
